Measured values published in PubChem BioAssay (Tox21).
Several values for one entry are separate records, joined by “and”; a condition that tells them apart may be missing. Equal values may be shown once. This list was built around the results that the source calls inconclusive (neither active nor inactive); the mix of calls is not that of the screen. Potencies beside an inconclusive call are fits to weak or partial responses and may not hold up. A structure can be active in one record and inactive in another. Activity calls are given as the source filed them. The call rests on the fitted dose curve; in most records, active means well fitted curve in the direction sought with a large enough effect in the repeat runs; inconclusive means weak or mixed curves; inactive means no such curve, though single readings can be large; an effect the other way counts as inactive or inconclusive.

Test system: not listed separately
Assay: qHTS assay to identify small molecule antagonists of the estrogen receptor alpha (ER-alpha) signaling pathway using the BG1 cell line - cell viability counter screen (AID 743081);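 further: compound given together with 17beta-estradiol as the ER stimulus; nearly all actives have a fitted effect of over 45% in size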
Conditions: BG1Luc4E2 viability, CellTiter-Fluor, 22 h; activity change, negative = cytotoxicity: at 70.3 µM (top of the series)
On the % scale 0 is the no-effect control and ±100 the full control effect; potency means the concentration at half of the fitted maximal effect; tags describe the fitted curve by direction and shape.

Compound	Potency	activity change, negative = cytotoxicity
CC(C)c1nc(CN(C)C(=O)N[C@H](C(=O)N[C@@H](Cc2ccccc2)C[C@H](O)[C@H](Cc2ccccc2)NC(=O)OCc2cncs2)C(C)C)cs1	inconclusive: 13.3 µM [cytotoxic, single point] and inconclusive: 8.41 µM [cytotoxic, partial curve]	–
C[C@@H]1C[C@H]2[C@@H]3C[C@H](F)C4=CC(=O)C=C[C@]4(C)[C@@]3(F)[C@@H](O)C[C@]2(C)[C@@]1(O)C(=O)CO	–	inactive: 4.5% [at 32.5 µM]
CCN(CC)CCNC(=O)c1c(C)[nH]c(/C=C2\C(=O)Nc3ccc(F)cc32)c1C	active: 9.44 µM	–
c1ccc2sc(SN3CCOCC3)nc2c1	–	inactive: 1.72%
CCC1Nc2cc(Cl)c(S(N)(=O)=O)cc2S(=O)(=O)N1 (centres undefined)	inconclusive: 1.68 µM [rising, full curve, poor fit]	–
CC(CN(C)C)CN1c2ccccc2CCc2ccccc21 (centres undefined)	inconclusive: 0.639 µM [rising, partial curve]	–
CCOCCOCCO	inactive	–
Cc1ccccc1N=C(N)Nc1ccccc1C	inconclusive: 67.3 µM [cytotoxic, single point]	–
NNC(=O)c1cccc(C(=O)NN)c1	–	inactive: -4.21%
C1CCCC1	–	inactive: -9.36%
CC[C@H]1OC(=O)[C@H](C)[C@@H](O[C@H]2C[C@@](C)(OC)[C@@H](O)[C@H](C)O2)[C@H](C)[C@@H](O[C@@H]2O[C@H](C)C[C@H](N(C)C)[C@H]2O)[C@](C)(O)C[C@@H](C)C(=O)[C@H](C)[C@@H](O)[C@]1(C)O	inconclusive: 33.4 µM [cytotoxic, partial curve]	–
COc1cc(C(=O)NC2CCCNC2)cc(OC)c1OC (centres undefined)	inconclusive: 13.3 µM [cytotoxic, partial curve]	–
CC1=C(/C=C/C(C)=C/C=C/C(C)=C/C(=O)O)C(C)(C)CCC1	inconclusive: 68.7 µM [cytotoxic, partial curve, poor fit]	–
C=C[C@H]1CN2CC[C@H]1C[C@@H]2[C@@H](O)c1ccnc2ccc(OC)cc12	inconclusive: 67.5 µM [cytotoxic, partial curve, poor fit]	–
Nc1nc(-c2ccccc2)cs1	–	inactive: -8.89%
CC1(C)S[C@@H]2[C@H](NC(=O)[C@H](N)c3ccccc3)C(=O)N2[C@H]1C(=O)O	inconclusive: 6.68 µM [cytotoxic, full curve]	–
CN=C(N)NC(=O)Nc1c(C)cccc1C	inconclusive: 13.3 µM [cytotoxic, partial curve, poor fit]	–
COC(=O)CS	–	inactive: 1.92%

Biological target: Aromatase (Homo sapiens) (UniProt P11511)
Sequence of UniProt P11511 (P11511 whole entry, looked up): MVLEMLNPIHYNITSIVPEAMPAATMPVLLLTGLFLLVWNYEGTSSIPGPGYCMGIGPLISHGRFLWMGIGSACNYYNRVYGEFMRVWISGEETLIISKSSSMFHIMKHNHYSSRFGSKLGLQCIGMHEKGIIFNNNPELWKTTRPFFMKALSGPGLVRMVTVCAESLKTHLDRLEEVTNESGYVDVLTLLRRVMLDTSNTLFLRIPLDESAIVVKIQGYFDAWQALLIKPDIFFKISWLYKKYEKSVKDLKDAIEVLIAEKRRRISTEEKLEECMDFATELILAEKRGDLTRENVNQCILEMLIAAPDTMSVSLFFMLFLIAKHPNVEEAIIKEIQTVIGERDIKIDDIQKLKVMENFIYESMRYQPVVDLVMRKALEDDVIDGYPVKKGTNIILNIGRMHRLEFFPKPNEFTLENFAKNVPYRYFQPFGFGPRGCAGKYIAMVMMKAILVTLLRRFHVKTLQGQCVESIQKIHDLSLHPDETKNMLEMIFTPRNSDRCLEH
Assay: qHTS assay to identify aromatase inhibitors (AID 743083); further: nearly all actives have a fitted effect of over 55% in size
Conditions: MCF-7 aro ERE, testosterone-driven ERE luciferase, 24 h; series mostly up to 70.3 µM; activity, negative = inhibition: at the top concentration

Compound	Potency	activity, negative = inhibition
CCN(CC)CCNC(=O)c1c(C)[nH]c(/C=C2\C(=O)Nc3ccc(F)cc32)c1C	inconclusive: 29.8 µM [inhibitor]	–
c1ccc2cc3c4ccccc4c4ccccc4c3cc2c1	inconclusive: 0.973 µM [inhibitor, full curve]	–
CCCCCCC(=O)c1ccccc1	–	inactive: 20.4%
CCCCC/C=C/C=C/C=O	inconclusive: 68.6 µM [inhibitor, single point]	–
Brc1cc(Br)c(Oc2cc(Br)c(Br)cc2Br)cc1Br	inconclusive: 33.5 µM [inhibitor, single point]	–
Cc1ccnc2c1NC(=O)c1cccnc1N2C1CC1	inactive	–
CCC(=O)OC	–	inactive: 9.2% [at 95 µM]
c1ccc(-c2ccccn2)nc1	–	inactive: 17%
CC(C)CCCCCOC(=O)CS	inconclusive: 3.86 µM [inhibitor, partial curve, poor fit]	–
O=c1oc(=O)c2cc3c(=O)oc(=O)c3cc12	inactive	–
c1ccc(CCCc2ccncc2)cc1	active: 30.6 µM	–
O=[N+]([O-])c1ccccc1Nc1ccccc1	inconclusive: 3.83 µM [inhibitor, full curve, poor fit]	–

Test system: not listed separately
Assay: qHTS assay to identify aromatase inhibitors - cell viability counter screen (AID 743084);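 further: cells stimulated with testosterone during compound exposure; nearly all actives have a fitted effect of over 55% in size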
Conditions: MCF-7 aro ERE viability, CellTiter-Fluor, 24 h; activity change, negative = cytotoxicity: at 70.3 µM (top of the series)

Compound	Potency	activity change, negative = cytotoxicity
CC(C)c1nc(CN(C)C(=O)N[C@H](C(=O)N[C@@H](Cc2ccccc2)C[C@H](O)[C@H](Cc2ccccc2)NC(=O)OCc2cncs2)C(C)C)cs1	active: 23.7 µM	–
O=C(Nc1cccc2c(=O)cc(-c3nn[nH]n3)oc12)c1ccc(OCCCCc2ccccc2)cc1	–	inactive: -3.36%
CCCCC1=NC2(CCCC2)C(=O)N1Cc1ccc(-c2ccccc2-c2nn[nH]n2)cc1	inconclusive: 29.8 µM [cytotoxic, partial curve]	–
CC/C=C1/OC(=O)c2ccccc21	–	inactive: 2.41%
CCCCCCC(=O)c1ccccc1	–	inactive: 3.95%
CCCCC/C=C/C=C/C=O	inconclusive: 77 µM [cytotoxic, single point]	–
Brc1cc(Br)c(Oc2cc(Br)c(Br)cc2Br)cc1Br	inconclusive: 33.5 µM [cytotoxic, single point]	–
O=C1CCCCCCCCCCC1	inconclusive: 27.3 µM [rising, partial curve, poor fit]	–
CC(CN(C)C)CN1c2ccccc2CCc2ccccc21 (centres undefined)	inconclusive: 5.07 µM [cytotoxic, partial curve, poor fit]	–
CCCCCCNC(=O)n1cc(F)c(=O)[nH]c1=O	–	inactive: -6.01%
OCC(O)CN1CCN(c2ccccc2)CC1 (centres undefined)	–	inactive: 8.18%
COc1cccc(OC)c1C(=O)N[C@@H]1C(=O)N2[C@@H]1SC(C)(C)[C@@H]2C(=O)O	inconclusive: 16.8 µM [rising, partial curve, poor fit]	–
Cc1ccc(OC(=O)c2ccccc2O)cc1	–	inactive: -1.06%
CCN[C@H]1CN(CCCOC)S(=O)(=O)c2sc(S(N)(=O)=O)cc21	–	inactive: -12.9% [at 32.5 µM]
CC1=C(/C=C/C(C)=C/C=C/C(C)=C/C(=O)O)C(C)(C)CCC1	inconclusive: 68.7 µM [cytotoxic, single point] and inconclusive: 68.5 µM [cytotoxic, single point]	–
CC1(C)S[C@@H]2[C@H](NC(=O)[C@H](N)c3ccccc3)C(=O)N2[C@H]1C(=O)O	inconclusive: 30.4 µM [cytotoxic, partial curve, poor fit]	–
O=c1cc(-c2ccccc2)oc2cc(O)cc(O)c12	inconclusive: 30.6 µM [cytotoxic, partial curve]	–
CN=C(N)NC(=O)Nc1c(C)cccc1C	–	inactive: 8.08%
CC(=O)C1=C(C)[C@@H]2C[C@@]3(C1)[C@H](C)CC[C@H]3C2(C)C	inactive	–
